# Source: article PMC6502797
# Target: Flag-tagged extracellular domain of the membrane-bound CTLA-4 (Flag-memCTLA-4-ECD) (human) (UniProt P16410)
# Assay: Western blot after SDS-PAGE under non-reducing and reducing conditions; 10 ng of Flag-memCTLA-4-ECD or Flag-sCTLA-4
substance,measurement,value
"Flag-tagged extracellular domain of the membrane-bound CTLA-4 (Flag-memCTLA-4-ECD) (a stretch of the chain, chain not printed) (domain or fragment; other documents disagree on this pair)",stoichiometry N,2
